# From PubChem BioAssay AID485344 (National Center for Advancing Translational Sciences (NCATS), 2010)
# The campaign covered roughly 340,000 compounds. About 6,900 (2%) were called active. Cut-off read from the data, not from the text of the source: active = inhibition above about 30%; inactive = below that, where a call was filed. Only a part is listed here, and it is no random draw. Where no call is shown, the source filed none.
# Target: D(2) dopamine receptor (Homo sapiens) (UniProt P14416)
# Test: HTS Assay for Allosteric Antagonists of the Human D2 Dopamine Receptor: Primary Screen for Antagonists; note: 0% is about no effect
# Conditions: HEK293 TREx D2 cells, calcium flux, dopamine EC80; at 10 µM; stronger effect = higher value
# In short: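 Inhibition of EC80 dopamine-driven calcium flux, recorded kinetically, defines activity here; cells are a tetracycline-induced HEK293 T-REx line expressing force-coupled D2.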
# Sequence of UniProt P14416 (P14416 whole entry, looked up): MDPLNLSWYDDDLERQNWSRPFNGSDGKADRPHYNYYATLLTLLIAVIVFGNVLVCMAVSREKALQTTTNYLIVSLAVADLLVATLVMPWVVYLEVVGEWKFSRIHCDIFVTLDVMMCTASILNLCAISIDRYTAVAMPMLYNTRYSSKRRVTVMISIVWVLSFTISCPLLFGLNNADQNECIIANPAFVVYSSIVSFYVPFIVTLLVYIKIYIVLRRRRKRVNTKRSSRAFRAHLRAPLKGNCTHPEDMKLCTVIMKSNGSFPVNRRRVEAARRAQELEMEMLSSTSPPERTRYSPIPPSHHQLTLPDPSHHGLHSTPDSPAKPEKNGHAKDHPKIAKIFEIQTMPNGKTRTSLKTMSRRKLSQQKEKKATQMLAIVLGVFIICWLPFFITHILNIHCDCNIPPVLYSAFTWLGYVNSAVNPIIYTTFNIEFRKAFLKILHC
row,SMILES,inhibition
1,O=C(CN1C(=O)C2CCCCN2c2ccc(C(=O)N3CCCC3)cc21)NCc1cccc(Cl)c1 (stereo not given),-7.66%
2,CN(C)c1ccc(CNC(=O)c2cc3cc(S(=O)(=O)N4CCCCC4)ccc3n2C)cc1,-13.8%
3,COc1ccc(S(=O)(=O)N2CCN(c3ccccc3OC)CC2)cc1-c1noc(C)n1,13.5%
4,Cc1ccc(-c2nc3ccccc3n3c(-c4ccccc4)c4c(=O)n(C)c(=O)n(C)c4c23)cc1,-6.67%
5,Cc1ccc(Cn2c(-c3ccccc3)nc3ccccc32)cc1,2.21%
6,COc1cc(/C=C(\C#N)c2nc3ccccc3c(=O)[nH]2)cc(OC)c1OC,-5.22%
7,COc1cc(OC)c(NC(=O)c2cc(CN3CCOCC3)on2)cc1Cl,3.65%
8,CCn1ccc2cc(S(=O)(=O)N3CCC(C(=O)NCc4cccc(C)c4)CC3)ccc21,3.54%
9,Cc1cccc(N(C(=O)c2sc(C)nc2C)C(C(=O)NCc2ccco2)c2ccccc2)c1 (stereo not given),active: 45.5%
10,Cc1ccc(C)c(Cn2c(=O)n(CCCCC(=O)NCc3ccccc3Cl)c(=O)c3ccccc32)c1,12.3%
11,OCC1(Cc2ccccc2)CCCN(Cc2ccc(-c3ccco3)cc2)C1 (stereo not given),active: 54.2%
12,CCOc1ccccc1NC(=O)Cn1ccn(-c2ccccc2)c(=O)c1=O,-5.96%
13,CCCCNC(=O)c1cc(Sc2ccc(OCC)cc2)nc2ccccc12,-8.81%
14,CCOc1cccc(C2c3c(oc4ccc(F)cc4c3=O)C(=O)N2CCc2ccc(OC)cc2)c1 (stereo not given),8.75%
15,COc1ccc(NC(=O)c2nnn(Cc3nc(-c4cc(Br)ccc4OC)oc3C)c2C)cc1,10.3%
16,Cc1ccc(CN(C(=O)Nc2cccc(Cl)c2)c2ccccn2)cc1,-18.9%
17,CCNC(=O)Cn1c(-c2cccs2)cc2ccccc21,-6.32%
18,COc1ccc(Nc2cc(C(=O)NC3CCCC3)c3ccccc3n2)c(OC)c1,-12%
19,O=C(N/N=C/c1cc2c(cc1Br)OCO2)c1cc2ccccc2o1,active: 79.9%
20,COc1cccc(/C=C/C(=O)Nc2ccc(C(=O)Nc3cccc(S(N)(=O)=O)c3)cc2)c1OC,active: 77.1%
21,COc1ccc(NC(=O)C2CCN(S(=O)(=O)c3ccc4c(c3)CCCC(=O)N4)CC2)cc1Cl,6.24%
22,CCN(CC)C1=CC2=CC(=C(C#N)C#N)CCC2CC1 (stereo not given),active: 75.6%
23,O=C(CSc1nc(=O)[nH]c2c1CCCC2)Nc1ccccc1C(F)(F)F,5.29%
24,CCOC(=O)C1CCN(CCC(=O)Nc2ccc(Br)c(C)c2)CC1,18.9%

row,SMILES,inhibition
1,Cc1ccc(NC(=O)C(NS(=O)(=O)c2ccc3c(c2)CCC(=O)N3)c2ccccc2)cc1C (stereo not given),-13.5%
2,CCOc1ccc(CNC(=O)c2ccc(-c3nc(CS(=O)(=O)c4ccccc4)c(C)o3)cc2)cc1,-24.2%
3,Cc1nn2c(=O)cc(COC(=O)c3ccc(NC(=O)C4CCCCC4)cc3)nc2s1,-1.08%
4,Cc1ccc(NC(=O)Cn2c(=O)n(CCCCC(=O)NCCc3ccccc3)c(=O)c3ccccc32)c(C)c1,17.1%
5,O=C(Nc1ccc(F)cc1F)c1cc(-c2ccccc2O)no1,14%
6,COc1cc(NC(=O)Cn2nc(C(F)(F)F)c3c2CCCC3)c(OC)cc1Cl,-2.72%
7,CCCCOC(=O)c1ccc(NC(=O)c2cc3c(=O)n4cccc(C)c4nc3n2C)cc1,9.52%
8,COCCNC(=O)CCCn1c(=O)c2cc(OC)c(OC)cc2n(CC(=O)Nc2ccc(F)cc2)c1=O,5.44%
9,O=C(NCC(c1ccc(F)cc1)N1CCOCC1)c1nn(-c2ccccc2)c(=O)c2ccccc12 (stereo not given),active: 69.8%
10,Cc1ccc(CNS(=O)(=O)c2ccc3c(c2)CCN3S(C)(=O)=O)cc1,4.11%
11,COc1ccc(-c2cn3nc(N4CCC(C(=O)Nc5cccc(C)c5C)CC4)sc3n2)cc1,8.21%
12,COc1ccc(N(CC(=O)N2CCN(c3cccc(C)c3C)CC2)S(=O)(=O)c2c(C)noc2C)cc1,-13%
13,COc1ccc2nc(N(Cc3cccnc3)C(=O)c3ccc4c(c3)OCCO4)sc2c1,-2.72%
14,CCCSc1ncc(Cl)c(C(=O)Nc2sc3c(c2C(=O)NCCOC)CCCC3)n1,3.77%
15,Cc1c(Cl)cccc1NC(=O)CSc1nc(=O)n(Cc2ccccn2)c2c1CCC2,9.89%
16,CC1Cc2ccccc2N1C(=O)C12CCC(C)(C(=O)C1)C2(C)C (stereo not given),active: 32%
17,CCOC(=O)CSc1nc(C)nc2c1sc1nc(C)c(C(C)=O)c(-c3ccc(OC)cc3)c12,active: 39.6%
18,Cc1ccc2occ(CN3CCN(c4ccccc4)CC3)c(=O)c2c1,active: 67.4%
19,Cc1nn2c(=O)cc(COC(=O)c3cccc(NC(=O)c4cccs4)c3)nc2s1,-0.102%
20,Cc1cccc(N(C)S(=O)(=O)c2cc3c(cc2Cl)NC(=O)CO3)c1,-2.28%
21,CCOc1ccc(NS(=O)(=O)c2ccc3[nH]c4c(c3c2)CCCC4)cc1,1.72%
22,COCCn1c(=O)[nH]c2cc(C(=O)NCCN3CCN(c4cccc(Cl)c4)CC3)ccc2c1=O,active: 87.3%
23,CCn1c(SCCOc2ccccc2F)nc2ccccc21,-11.9%
24,CCOc1ccccc1C(=O)Nc1ccc2c(c1)N(C)C(=O)c1ccccc1S2,21.1%

row,SMILES,inhibition
1,CCN(CC(=O)Nc1cc(Cl)ccc1C)C(=O)COc1ccccc1F,active: 39.9%
2,Cc1nn(-c2ccc(N3CCOCC3)nn2)c(C)c1CCC(=O)NCc1ccc(OC(C)C)cc1,11.7%
3,Cc1c(C2=CCN(S(=O)(=O)c3ccc(CC(C)C)cc3)CC2)c2ccccc2n1CC(=O)N1CCCC1,-2.02%
4,COc1ccc(C(=O)N(Cc2ccc(C(C)C)cc2)C2CCS(=O)(=O)C2)cc1 (stereo not given),5.49%
5,Cc1nc2nc(SCC(=O)NCCc3ccccc3)nn2c(C)c1Cc1c(F)cccc1Cl,3.22%
6,Cc1ccccc1CNS(=O)(=O)c1csc(C(N)=O)c1,1.9%
7,Cc1ccc(C(C)C)c(OCC(=O)N2CCC(c3nc4ccccc4o3)CC2)c1,3.76%
8,Nc1c(C(=O)c2ccc(Br)s2)oc2ccccc12,active: 44.8%
9,O=C(CCN1C(=O)COc2ccccc21)NCCN1CCN(c2ccccc2F)CC1,active: 44.7%
10,COc1ccccc1CNC(=O)C1CCCN(c2nnc(-n3c(C)ccc3C)s2)C1 (stereo not given),-0.813%
11,CC1=C(C(=O)OCC2CCCCC2)C(c2ccccc2F)CC(=O)N1 (stereo not given),15.1%
12,Cc1ccc(C)c(NC(=O)CN2C(=O)COc3ccc(Cl)cc32)c1,0.495%
13,Cn1c(=O)nc2n(-c3ccc(Cl)c(Cl)c3)c3cc(Cl)ccc3cc-2c1=O,-5.26%
14,CCCCNC(=O)NS(=O)(=O)c1ccc(C)cc1,active: 33.2%
15,O=C(Nc1c(C(=O)Nc2ccc(F)cc2)oc2ccccc12)c1ccccc1F,5.06%
16,COc1ccc(CN2CCCC(C(=O)Nc3cccc(-n4cccn4)c3)C2)cc1 (stereo not given),active: 78.6%
17,Cc1ccc(NC(=O)C(C)Sc2nc(=O)cc(N)n2-c2cccc(C)c2)cc1 (stereo not given),19.6%
18,Cc1c(C2=CCN(S(=O)(=O)c3cccc(Cl)c3)CC2)c2ccccc2n1CC(=O)N1CCCC1,9.86%
19,CN(Cc1ccccc1)S(=O)(=O)c1ccc(-c2cnc(C3CC3)o2)cc1,-16.3%
20,COc1cccc(S(=O)(=O)N2CCN(Cc3ccc4c(c3)OCO4)CC2)c1,18%
21,CCc1ccc(-c2nc3c(c(SCc4ccccc4F)n2)Cc2c(CO)cnc(C)c2O3)cc1,-4.83%
22,Cc1cccc(N2CCN(C(=O)CN3CCSc4ccccc43)CC2C)c1 (stereo not given),-19.2%
23,CCOc1ccc(NC(=O)NCCc2c(C)nn(C)c2C)cc1,15.5%
24,COc1ccc(OC)c(CNC(=O)c2ccc(-c3nc(CSc4ccccc4)c(C)o3)cc2)c1,1.75%

row,SMILES,inhibition
1,CC1CCc2nn(CC(=O)Nc3ccccc3Cl)cc2C1 (stereo not given),2.82%
2,Cc1ccc(NC(=O)c2cnn3c(C(F)F)cc(-c4ccccc4)nc23)cc1F,15%
3,CCCn1c(SCc2nc(-c3ccc(OC)c(OC)c3)no2)nnc1-c1ccccc1,-10.2%
4,CC(C)Oc1ccc(C(=O)N2CCN(CCc3ccccn3)CC2)cc1,-3.81%
5,O=C(NCCc1ccccc1)C1CCC(CNS(=O)(=O)c2ccccc2)CC1 (stereo not given),-12.8%
6,CCCc1nc(SC)ncc1C(=O)N1CCN(c2ccc(Cl)cc2)CC1,5%
7,COc1ccc(CN(Cc2ccco2)c2cnc(S(C)(=O)=O)nc2C(=O)Nc2ccc(C)c(Cl)c2)cc1,-0.493%
8,O=C(Nc1ccc2nc(SCC(=O)N3CCc4ccccc43)sc2c1)c1ccc(F)cc1,20.6%
9,O=c1c2oc3ccccc3c2n(Cc2ccccc2Cl)c(=O)n1Cc1ccco1,7.81%
10,O=C(CCS(=O)(=O)c1cc2c(cc1Cl)NC(=O)CO2)NCc1ccccc1Cl,8.72%
11,CC(C)Oc1ccc(CNC(=O)c2ccc(CN3CC(=O)N4CCCCC4C3=O)cc2)cc1 (stereo not given),-0.272%
12,Oc1c(C(c2ccc(Cl)cc2Cl)N2CCN(c3ccccc3)CC2)sc2nc(-c3ccco3)nn12 (stereo not given),-13%
13,O=C(NCc1cccc(Cl)c1)c1ccc(NC(=O)N2CC3CCCN3c3ccccc32)cc1 (stereo not given),0.453%
14,CSc1ncc(C(=O)NCc2cccc(F)c2)c(-c2ccccc2)n1,14.7%
15,O=C(c1ccccc1)N(Cc1ccco1)C1CCS(=O)(=O)C1 (stereo not given),active: 37.4%
16,Cc1sc2ncn(CC(=O)N3CCN(c4ccc(F)cc4)CC3)c(=O)c2c1S(=O)(=O)N1CCC(C)CC1,1.35%
17,Cc1ccc(CNC(=O)Cn2c(=O)cc(C(F)(F)F)c3c(C)nn(C)c32)cc1,8.79%
18,COC(=O)C1=C(c2ccccc2)c2ccccc2S(=O)(=O)N1CC(=O)Nc1ccc(F)c(F)c1,12.6%
19,CCOc1ccc(-c2nc(Cn3c(=O)cc(-c4ccccc4)c4c(C)nn(C)c43)c(C)o2)cc1,-2.72%
20,CCCCN1C(=O)c2ccc(C(=O)Nc3ccccc3N3CCOCC3)cc2C1=O,active: 43.8%
21,CCOc1ccc(NC(=O)CN(c2ccc(CC)cc2)S(=O)(=O)c2c(C)noc2C)cc1,-2.7%
22,CCN1c2ccccc2-c2nc(SCC(=O)NCc3ccc(C)cc3)ncc2S1(=O)=O,-6.95%
23,CCOC(=O)c1ccc(NC(=O)Cn2cc(C(=O)c3ccc(CC)cc3)c(=O)c3ccc(C)nc32)cc1,-2.29%
